The values below come from patent US20240150489A1 (ICHNOS SCIENCES, published 2024).

The target of this experiment is T1, human SIRPα-ECD-Avi-His (human, UniProt P78324 31-352).
T1 construct: UniProt P78324-2; also called recombinant human SIRPα protein; human SIRPa
The experiment can be described thus: BLI (Octet), biotinylated human CD47-avi-his on streptavidin sensor, SIRPα at 2 µM, no Fab. For orientation: BLI is a label-free optical method that tracks binding on a fibre tip over time.

B1: human CD47-ECD-Avi-His (receptor)
chain: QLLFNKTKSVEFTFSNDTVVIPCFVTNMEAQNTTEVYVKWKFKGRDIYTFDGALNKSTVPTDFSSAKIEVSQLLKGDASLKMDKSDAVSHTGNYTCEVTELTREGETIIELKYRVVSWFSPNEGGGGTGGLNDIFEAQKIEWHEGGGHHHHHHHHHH
notes: also called recombinant human CD47-avi-his protein; recombinant human CD47 protein
B1: the binding result was “binds”.
